Molecules are shown by their SMILES. In all, about 340,000 compounds went through this assay and about 6,900 (2%) were called active. Cut-off read from the data, not from the text of the source: active = inhibition above about 30%; inactive = below that, where a call was filed. The entries are a selection whose mix differs from that of the whole data set. Entries without a call were filed so in the source.

Sequence of UniProt P14416 (P14416 whole entry, looked up): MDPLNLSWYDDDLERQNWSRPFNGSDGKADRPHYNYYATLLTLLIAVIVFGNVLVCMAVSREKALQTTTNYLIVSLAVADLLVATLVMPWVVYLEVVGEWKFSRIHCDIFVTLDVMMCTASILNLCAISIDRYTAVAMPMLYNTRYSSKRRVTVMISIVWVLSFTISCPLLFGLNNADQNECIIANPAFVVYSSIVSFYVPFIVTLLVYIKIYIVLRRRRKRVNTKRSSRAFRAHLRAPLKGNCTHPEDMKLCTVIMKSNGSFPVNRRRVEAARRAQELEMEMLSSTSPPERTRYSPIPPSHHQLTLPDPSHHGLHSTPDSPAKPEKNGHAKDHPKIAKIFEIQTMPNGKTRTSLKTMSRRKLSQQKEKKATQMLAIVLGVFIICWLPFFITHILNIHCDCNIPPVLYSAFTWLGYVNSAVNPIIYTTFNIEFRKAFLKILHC

The target in this experiment is D(2) dopamine receptor (Homo sapiens) (UniProt P14416). The experiment is described as follows: HTS Assay for Allosteric Antagonists of the Human D2 Dopamine Receptor: Primary Screen for Antagonists. Note: 0% is about no effect. Particulars: HEK293 TREx D2 cells, calcium flux, dopamine EC80; at 10 µM; stronger effect = higher value. The method, boiled down:
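In this primary screen, negative modulation is detected by tracking calcium flux after an EC80 dopamine challenge in inducible HEK293 T-REx D2 cells preexposed to test compound for 180 s.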
In general, inhibition refers to the drop in the measured response relative to a control, in per cent. As for `O=S(=O)(NCc1ccc(Cl)cc1)c1ccc(-c2cnc(C3CC3)o2)cc1`, the inhibition is 13.8%.

Consider `Cc1ccccc1CN1C(=O)c2ccccc2Sc2ccc(C(=O)NC3CCCC3)cc21`, for which the inhibition was 2.03%.

As to `CCN(Cc1ccccc1)c1ncnc2c1nnn2C`, the inhibition worked out at 10.6%.

With `CCN(CC)CCNC(=O)Nc1ccc2c(c1)N(Cc1ccccc1)C(=O)c1ccccc1S2`, the inhibition was -2.56%.

Regarding `COc1ccc(N2CC(NC(=O)c3ccc(S(=O)(=O)N4CCOCC4)cc3)CC2=O)cc1OC` (stereo not given), the inhibition was -14.8%.

In the case of `CCc1ccc(S(=O)(=O)N(C(=O)Oc2ccccc2)c2ccc3oc(C)c(C(=O)OC)c3c2)cc1`, the inhibition was -7.53%.

In the case of `CCCCNC(=O)C1CCC(CNS(=O)(=O)c2ccc(Cl)cc2)CC1` (stereo not given), the inhibition came out at 14%.

Regarding `CCCCOc1cccc(C(=O)N(Cc2cccs2)c2ccc(OC)cc2)c1`, the inhibition came to 4.67%.

In the case of `NC(=O)c1ccc(C(F)(F)F)n(Cc2cccc(Cl)c2)c1=O`, the inhibition was active: 31.9%.

`CC(=O)NCCn1c(SCC(=O)Nc2ccc(C)cc2)nc2ccccc2c1=O`: the inhibition was determined as 2.07%.

Turning to `CC(C)(C)c1ccc(-c2nc(SCC(=O)Nc3ccc(Cl)cc3)[nH]c(=O)c2C#N)cc1`, the inhibition stood at 25.5%.

On to `Cc1cccc(NC(=O)c2sc3nc(N4CCOCC4)c4c(c3c2N)CC(C)(C)OC4)c1`, for which the inhibition is -13%.

Turning to `O=C(CSc1nc2c([nH]c3ccccc32)c(=O)n1-c1ccccc1)Nc1ccc2c(c1)OCCO2`, the inhibition is 4.32%.

Consider `Cc1ccc(C(=O)NNc2ncnc3c2cnn3C)cc1`, for which the inhibition is active: 30.9%.

Consider `Cc1ccc(C)c2sc(N3CCN(C(=O)C(C)(C)C)CC3)nc12`, for which the inhibition was -11.1%.

Consider `CCN(CCCNC(=O)c1cc2c(Cl)nc3ccccc3c2s1)Cc1ccccc1`, for which the inhibition is -9.88%.

For `CCC(=O)c1cc2c(cc1NC(=O)c1ccccc1F)OCCO2`, the inhibition was -1.4%.

In the case of `CCN(CC)c1sc(S(=O)(=O)c2ccccc2)nc1S(=O)(=O)c1ccc(C)cc1`, the inhibition was -12.7%.

Take `CC(=O)N1c2ccc(S(=O)(=O)NCCC(=O)Nc3ccc(Br)c(C)c3)cc2CC1C` (stereo not given): the inhibition worked out at 19.2%.

As for `CC1=C(C(=O)Nc2ccc(C)cc2Cl)C2(CCCCCC2)OC1=O`, the inhibition is -3.37%.

For the compound `CCOc1ccc(CCNC(=O)c2ccc(-n3c(C)cc4c3CCC(C)C4)cc2)cc1OCC` (stereo not given), the inhibition was -0.936%.

For the compound `CCCN(C(=O)CCc1nc(-c2ccc(OC)cc2)no1)c1ccccc1F`, the inhibition is -1.61%.

`CSc1ncc(C(=O)N2CCN(c3cc(Cl)ccc3C)CC2)c(C)n1`: the inhibition was found to be 4.53%.

For `COc1cccc2cc(-c3nnc(Nc4c(F)cccc4F)s3)c(=O)oc12`, the inhibition was -11%.

Take `COc1cc(-c2nc(Cn3nnc(C(=O)Nc4ccc(C)cc4C)c3C)c(C)o2)cc(OC)c1OC`: the inhibition is -5.34%.

Regarding `COc1ccc(N2CCN(c3oc(-c4ccc(COc5cccc(C)c5)o4)nc3C#N)CC2)cc1`, the inhibition came to 2.06%.

Consider `Cc1ccc(NC(=O)CN(C)S(=O)(=O)c2ccc3[nH]c4c(c3c2)CCCC4)c(Cl)c1`, for which the inhibition was -1.88%.

`COc1ccccc1CO/N=C/NC(=O)c1c(OC)ccnc1Oc1ccc(F)cc1`: the inhibition is active: 37%.

Consider `CC(C)Cn1c(=O)c2ccccc2n2c(CCC(=O)NC(C)c3ccccc3)nnc12` (stereo not given), for which the inhibition was -7.1%.

With `Cc1cccc(C(=O)NCCN2CCN(c3ccccc3)CC2)c1`, the inhibition was active: 90.8%.

With `Cc1cc(C)c2nc(N(Cc3cccnc3)C(=O)c3cccs3)sc2c1`, the inhibition is 4.96%.

`CCNS(=O)(=O)c1ccc(NC(=O)Nc2cccc(C(F)(F)F)c2)cc1`: the inhibition is active: 38.4%.

For `Cc1ccc(Cn2c(CN3CCC(C(=O)NCCc4ccccc4)CC3)cc3ccccc32)cc1`, the inhibition is -3.62%.

Regarding `CC(C)Sc1ncc(Cl)c(C(=O)N(Cc2ccc(N(C)C)cc2)C2CCS(=O)(=O)C2)n1` (stereo not given), the inhibition was determined as 28.2%.

With `CCc1nn(CC(=O)Nc2ccc(N(CC)CC)cc2C)c(=O)c2cc3sccc3n12`, the inhibition is -0.0834%.

Consider `CCN1CCN(c2oc(-c3ccccc3)nc2S(=O)(=O)c2ccc(C)cc2)CC1`, for which the inhibition was active: 47.2%.

Regarding `N#Cc1ccc(C(=O)Nc2ccc3c(c2)N(C2CCCC2)C(=O)c2ccccc2S3)cc1`, the inhibition stood at 7.34%.

For `Cc1nn(-c2ccc(N3CCCC3)nn2)c(C)c1CCC(=O)Nc1ccc(F)c(Cl)c1`, the inhibition is 7.64%.

As to `O=C(NCCc1nc2ccccc2n1Cc1ccc(Cl)cc1Cl)c1ccco1`, the inhibition came out at 3.5%.

Turning to `CCn1ccc2c(OCC(=O)NCc3ccc(F)cc3)cccc2c1=O`, the inhibition came to 16.1%.

As for `Cc1ccc(-n2c(=O)c3c(cnn3C)n(Cc3ccccc3F)c2=O)cc1`, the inhibition amounted to 1.69%.

`Cn1c2ccccc2c2cnn(CC(=O)Nc3ccccc3C(F)(F)F)c(=O)c21`: the inhibition was -0.721%.

With `Cc1ccccc1-c1noc(-c2ccc(N3CCOCC3)c([N+](=O)[O-])c2)n1`, the inhibition is -20.9%.

On to `CCn1cc(S(=O)(=O)c2ccccc2)c(=O)c2cc(F)c(N3CCN(c4ccccc4)CC3)cc21`, for which the inhibition is -2.41%.

Turning to `CCN(CC)C(=O)c1sc2c(c1C)c(=O)n(-c1ccc(OC)cc1OC)c(=O)n2CC(=O)c1ccc(Cl)cc1`, the inhibition was -14.6%.

Regarding `Nc1cc(Cl)nnc1Cl`, the inhibition is active: 35.8%.

With `CCOc1ccc(N(C(C)C(=O)Nc2cc(Cl)ccc2OC)S(C)(=O)=O)cc1` (stereo not given), the inhibition is 5.16%.

As to `COc1cc(NC(=O)c2oc3c(c2C)-c2nn(Cc4cccc(Cl)c4)cc2CC3)cc(OC)c1`, the inhibition came to 1.16%.

For the compound `O=C(Nc1ccc(OC(F)(F)F)cc1)C1CCN(S(=O)(=O)c2cccs2)CC1`, the inhibition was -9.43%.

Regarding `COc1cc(NC(=O)COCc2cc(-c3ccc4c(c3)OCO4)on2)cc(OC)c1`, the inhibition is -12.6%.

On to `COc1ccc(CCN2C(=O)NC(NS(=O)(=O)c3ccc(NC(C)=O)cc3)(C(F)(F)F)C2=O)cc1OC` (stereo not given), for which the inhibition was -8.7%.

On to `CC(=O)Nc1ccc2nc(SCCOc3cc(C)cc(C)c3)sc2c1`, for which the inhibition is -2.27%.

As for `CC(=O)N1c2ccc(S(=O)(=O)NCC3CCC(C(=O)Nc4cc(C)ccc4C)CC3)cc2CC1C` (stereo not given), the inhibition was -4.14%.

As for `COc1cc(NC(=O)c2c(C)oc3c2C2=NCCN2C=N3)cc(OC)c1OC`, the inhibition was found to be 2.95%.

Consider `CCc1ccc(-c2nn(CC(=O)NCc3ccccc3)c3c2cnc2ccc(F)cc23)cc1`, for which the inhibition was 8.94%.

Regarding `COc1ccc(OCC(=O)NCc2ccc3c(c2)CCN3C(=O)c2ccc(F)cc2)cc1`, the inhibition is -20.6%.

`O=C(CN1CCN(c2ccccc2O)CC1)NC(c1ccccc1)c1ccccc1`: the inhibition was active: 64.1%.

For `CCC1CCCCN1CCCNC(=O)c1cc2c(=O)oc3ccc(C)cc3c2s1` (stereo not given), the inhibition is active: 35.5%.

For `CCN(CC)S(=O)(=O)c1ccc(C(=O)N2CC(=O)Nc3ccc(F)cc3C2c2ccccc2)cc1` (stereo not given), the inhibition is -2.84%.

In the case of `CC(C)(C)OC(=O)N1CCC(c2c(C(=O)NCCc3ccccc3)cnn2-c2ccc(F)cc2)CC1`, the inhibition came to 1.95%.

Consider `O=C(C1CCN(S(=O)(=O)c2ccc(Br)s2)CC1)N1CCN(c2ccccc2)CC1`, for which the inhibition was -12.7%.

`O=C1/C(=C/c2ccc(F)cc2)SC(=S)N1CCCC(=O)N1CCCCC1CCO` (stereo not given): the inhibition was active: 31.6%.

`CCc1ccccc1NC(=O)C1(C)Cc2ccccc2C(=O)O1` (stereo not given): the inhibition is -1.55%.

Turning to `O=S(=O)(NCC(c1cccs1)S(=O)(=O)c1ccccc1)c1ccc(F)c(C(F)(F)F)c1` (stereo not given), the inhibition was -2.74%.

With `COc1ccc(-c2[nH]c(-c3cccc(OC)c3)nc2SCC(=O)NC2CCCC2)cc1`, the inhibition came to 10.5%.

On to `CCN(Cc1ccccc1)S(=O)(=O)c1cc(C(=O)Nc2cc(Cl)cc(Cl)c2)ccc1F`, for which the inhibition is -3.31%.

Consider `CC(C)(C)C1CCc2c(sc(NC(=O)c3ccc(Cl)cc3)c2C(=O)NCc2ccco2)C1` (stereo not given), for which the inhibition was found to be 1.91%.

Take `COc1ccccc1N1CCN(c2ncnc3c2cnn3-c2cccc(Cl)c2)CC1`: the inhibition was 8.91%.

Regarding `COc1ccc(-c2cn3nc(N4CCCC(C(=O)Nc5cc(C)cc(C)c5)C4)sc3n2)cc1` (stereo not given), the inhibition was -6.89%.

With `CCCc1cc(C(=O)Nc2c(C)nn(Cc3c(Cl)cccc3Cl)c2C)no1`, the inhibition came to 14.3%.

Turning to `COC(=O)c1ccc(OCC2c3cc(OC)c(OC)cc3CCN2C(=O)Cc2ccccc2)cc1` (stereo not given), the inhibition was -22.8%.

For the compound `Cn1cnnc1SCC(=O)Nc1ccc(C#N)cc1`, the inhibition is -4.82%.

As for `CN(CC(=O)NCc1ccccc1)S(=O)(=O)c1ccc2[nH]c3c(c2c1)CCCC3`, the inhibition is 19.5%.

`COc1cc(C(=O)Nc2ccc(S(=O)(=O)NC(C)C)cc2)cc(OC)c1OC`: the inhibition is active: 30.9%.

For `Cc1cc(Nc2nc3ccccc3c3nnc(C)n23)ccc1Br`, the inhibition stood at 1.97%.

Turning to `Cc1cc(C)cc(NC(=O)CSc2c(C(C)C)cnc3c2c(=O)n(C)c(=O)n3C)c1`, the inhibition is -3.09%.

Regarding `Cc1cc(C)cc(Nc2cc(C(=O)NC3CCCCC3)c3ccccc3n2)c1`, the inhibition was -12.2%.

With `COc1ccc(C)cc1NC(=O)c1cc(S(=O)(=O)N2CCC(C)CC2)ccc1F`, the inhibition was 8.11%.

Consider `CCOC(=O)c1ccccc1NC(=O)CSc1nnc(CC)n2c1cc1occc12`, for which the inhibition was determined as 17.2%.

Consider `CCCCc1ccc(C(=O)Nc2ccc3nc(N4CCN(CC)CC4)cc(C)c3c2)cc1`, for which the inhibition was -0.053%.

On to `CCOC(=O)c1cc(C)n(CC2CCC(C(=O)Nc3ccc(OC)cc3)CC2)c1C` (stereo not given), for which the inhibition was -6.35%.

`Fc1ccc(-c2cc3ncc4c(n3n2)-c2cc(Cl)ccc2OC4)cc1`: the inhibition is -14.3%.

On to `COc1ccc(CCNc2ncnc3c2c(-c2ccccc2)cn3-c2ccc(Cl)cc2)cc1OC`, for which the inhibition is 8.21%.

For `Cc1ccc(C(=O)Nc2ccccn2)cc1S(=O)(=O)N1CCOCC1`, the inhibition was active: 34.9%.

On to `CCOC(=O)CSc1nc2ccc(NC(=O)c3ccc(Cl)cc3)cc2s1`, for which the inhibition was 3.46%.

`COc1cccc(-c2nc(CS(=O)(=O)CC(=O)Nc3cccc(C(C)=O)c3)c(C)o2)c1`: the inhibition was determined as 5.39%.

For the compound `COc1cc(CN(C(=O)c2ccc(OC(C)C)cc2)c2ccccn2)cc(OC)c1OC`, the inhibition was -0.374%.

Consider `CCCC(=O)C1=C(O)C(C(=O)OC)C(C)(C)CC1=NC(C)C` (stereo not given), for which the inhibition was active: 32.7%.

In the case of `COC(=O)c1ccc(NC(=O)C2CCN(c3ncnc4c3nc3n4CCCCC3)CC2)cc1`, the inhibition worked out at 5.58%.

Regarding `COc1ccccc1-c1nnc(C2CCN(C(=O)c3ccccc3C)CC2)o1`, the inhibition was determined as 10.2%.

Regarding `COc1ccc(N(CC(=O)Nc2cc(OC)cc(OC)c2)S(=O)(=O)c2c(C)noc2C)cc1`, the inhibition was 14.4%.

Consider `Cc1cccc(-n2c(C)cc(C(=O)C(=O)Nc3nncs3)c2C)c1`, for which the inhibition was -13.4%.

For `Cc1ccc(O)c(NC(=O)CCS(=O)(=O)c2nc(-c3cccs3)cc(C(F)(F)F)n2)c1`, the inhibition was -6.43%.

As to `Cc1ccc(C(C)C)c(OCC(=O)Nc2cc(-c3nc4ccccc4[nH]3)ccc2C)c1`, the inhibition came to 18.1%.

`COc1ccccc1NC(=O)c1cc2c(=O)n(Cc3cccs3)ccc2nc1C`: the inhibition was -0.167%.

The values are drawn from PubChem BioAssay AID485344 (National Center for Advancing Translational Sciences (NCATS), 2010).
